Reference: PubChem BioAssay AID1347073 (National Center for Advancing Translational Sciences (NCATS), 2019)
In all, about 45,000 compounds went through this assay and about 200 (0.44%) were called active. Another 7% or so got no clear call; they are omitted. The call rests on the fitted dose curve; in most records, active means well fitted activation curve with a large enough effect; inconclusive means small, poorly fitted or top-dose-only effect; inactive means no such curve, though single readings can be large or run the other way. The list shows a part of the results.

experiment: qHTS of TDP-43 Inhibitors: NCGC Sytravon Library Screen; conditions: yeast TDP-43 toxicity rescue, BacTiter-Glo growth, 24 h; series mostly up to 46.1 µM; growth rescue (activation): at the top concentration; further: nearly all actives have a fitted effect of over 55% in size; on growth rescue (activation): 0% is about no effect
Summary of the method: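 TDP-43-expressing yeast, pregrown in raffinose, seeded at OD600 0.02 in galactose medium with compound for 24 hr at 30 deg C. Growth read by BacTiter-Glo luminescence, so rescue of toxicity appears as activation.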
Potency means the concentration at half of the fitted maximal effect.

Structure (SMILES) | growth rescue (activation) | Potency
NS(=O)(=O)c1ccc(CCNC(=O)CC(NC(=O)c2ccccc2Cl)c2ccccc2)cc1 (configuration not stated) | inactive: 0.413% | 
Cc1c(NC(=O)C(C)OC(=O)c2c3c(nc4ccccc24)CCC(C)C3)c(=O)n(-c2ccccc2)n1C (configuration not stated) | inactive: 22.5% | 
COC(=O)c1cc(CNC(=O)CC(C)c2ccccc2)ccc1OC (configuration not stated) | inactive: -1.9% | 
Cc1cccc(C)c1C(O)c1ncc(-c2cccc(C(F)(F)F)c2)[nH]1 (configuration not stated) | inactive: 10.2% | 
Cc1ccc(SCC(=O)NC(=O)NC(C)C)c(C)c1 | inactive: 31.3% | 
CC(=O)Nc1ccc(-c2csc(Nc3cccc(C)n3)n2)cc1 | inactive: 15% | 
C=CCN(C(=O)c1csnn1)C(C(=O)NCc1ccccc1)c1ccccc1F (configuration not stated) | inactive: 0.592% | 
COC(=O)C1=C(C)NC(C)=C(C(=O)OC)C1C(=O)OCCN1C(=O)c2ccccc2C1=O | inactive: -1.54% | 
CCc1ccc(CN(C)Cc2nc(-c3cccc(Cl)c3)no2)nc1 | inactive: 10.5% | 
CCN(CC)c1ncnc2c1ncn2[C@H]1CN(Cc2ccc3c(c2)OCO3)C[C@@H](CO)O1 | inactive: -5.42% | 
COc1ccc(NC(=O)Cc2coc3cc(C)c(C(C)C)cc23)cc1S(=O)(=O)N1CCOCC1 | inactive: 26.5% | 
Cc1ccc(S(=O)(=O)N(Cc2cccnc2)Cc2cc3ccccc3[nH]c2=O)cc1 | inactive: -2.28% | 
CCN(c1ccccc1)S(=O)(=O)c1cc(C(=O)NCC(c2ccco2)N2CCCCC2)ccc1C (configuration not stated) | inactive: -12.5% | 
Cc1ccc(/C=C2\CCC3=C2OC(N)=C(C#N)C3c2ccc(C)cc2)cc1 (configuration not stated) | inactive: 6.93% | 
C=CCOc1ccccc1NC(=O)CN1C(=O)CNC1=O | inactive: 6.81% | 
COc1ccc(NC(=O)CN(C)S(=O)(=O)c2ccc3nc(C)sc3c2)cc1Cl | inactive: 4.4% | 
COc1ccc(C(=O)NC2CCN(C(=S)Nc3ccccc3)CC2)cc1 | inactive: 9.54% | 
Cc1cc(C)nc(SC2CCCCC2NS(=O)(=O)c2ccccc2)n1 (configuration not stated) | inactive: 23.8% | 
Cc1ccc(S(=O)(=O)Nc2ncnc3ccccc23)cc1 | inactive: -11.2% | 
CSc1ccccc1NC(=O)CN(C)CC(=O)Nc1ccc(S(=O)(=O)N2CCCC2)cc1 | inactive: -2.24% | 
COc1cc(Cl)cc(C(=O)O)c1OCC(=O)O | inactive: -11.9% | 
CC(CNC(=O)c1ccc(C(C)(C)C)cc1)CN(C)C (configuration not stated) | inactive: 7.23% | 
CCOC(=O)N1CCN(C(=O)c2ccc3c(=O)n(CCOC)c(=O)[nH]c3c2)CC1 | inactive: 16.3% | 

Structure (SMILES) | growth rescue (activation) | Potency
O=C1C=C(N2CCCCCC2)C2(CCCCC2)O1 | inactive: 1.85% | 
O=S(=O)(c1cccc(NC(=S)Nc2ccc(Br)cc2Cl)c1)N1CCOCC1 | inactive: 23.7% | 
CC(O)CNc1nc2ccccc2n1CC(=O)NCCc1ccc(Cl)cc1 (configuration not stated) | inactive: 8.84% | 
COc1ccc(/C=N/Nc2ccccn2)cc1OC | inactive: 9.11% | 
CC1CCCN(C(=O)CNS(=O)(=O)c2cccs2)C1 (configuration not stated) | inactive: 6.22% | 
CC(=O)NC(Cc1ccc(F)cc1)C(=O)NC1CCN(C(=O)Nc2cccc(C)c2)CC1 (configuration not stated) | inactive: 0.764% | 
Cc1ccc(-n2c(SCc3nc4ccccc4c(=O)[nH]3)nnc2-c2ccccc2O)cc1 | inactive: -13.3% | 
CC(C)N(C(=O)CN1C(=O)C(=O)c2ccccc21)c1ccccc1 | inactive: 33.2% | 
O=[N+]([O-])c1ccc(N2CCN(c3ccccc3O)CC2)c(Cl)c1 | inactive: 23.9% | 
CCC(c1nnc(SCC(=O)Nc2cccc(S(N)(=O)=O)c2)n1-c1ccc(OC)cc1)N(C)C (configuration not stated) | inactive: 23.1% | 
CCCC(=O)NC(=S)Nc1cccc2c(O)cccc12 | inactive: 3.38% | 
COc1ccc(CCN(C)C(=O)c2ccc(S(=O)(=O)NCc3ccco3)cc2)cc1OC | inactive: -29.2% | 
COc1cc(C=C(c2nc3ccccc3s2)c2nc3ccccc3s2)cc(OC)c1O | inactive: 23.4% | 
Fc1cccc(F)c1/C=C/c1ccc2ccccc2n1 | inactive: -7.85% | 
COc1ccc(OCC(=O)O/N=C(\N)Cc2cccs2)cc1 | inactive: -7.39% | 
S=C(NCCc1ccccc1)NCC(c1ccco1)N1CCCCC1 (configuration not stated) | inactive: 11.7% | 
Cc1nn(Cc2ccc(Cl)cc2)c(Cl)c1/C=N/NC(=O)c1cccnc1 | inactive: 11.1% | 
CCOC(=O)c1sc(-n2[nH]c(C)cc2=O)nc1C | inactive: 27.3% | 
O=c1c2c3c(sc2nc(NCCO)n1Cc1ccco1)CCCCC3 | inactive: 12.7% | 
Cc1cccc(OCc2nnc(SCC(=O)N3c4ccccc4Sc4ccc(Cl)cc43)o2)c1 | inactive: 21.6% | 
O=Cc1cn[nH]c1-c1cccc([N+](=O)[O-])c1 | inactive: 6.44% | 
CCCCN(CC(=O)NCc1ccc(F)cc1)C(=O)c1ccco1 | inactive: 9.68% | 
CCc1ccc(OC(C)C(=O)N(Cc2ccccc2)C2CCS(=O)(=O)C2)cc1 (configuration not stated) | inactive: 12.3% | 

Structure (SMILES) | growth rescue (activation) | Potency
COC(=O)Cc1c(C(=O)OC)nnn1-c1ccc(OC)cc1 | inactive: -14.4% | 
O=C(O)c1ccccc1CSc1nc2ccccc2s1 |  | active: 11.2 µM
COc1ccc(NC(=O)Cc2ccc(C)cc2)c([N+](=O)[O-])c1 | inactive: 23.5% | 
Clc1ccc(NC2=NCCC2)cc1Cl | inactive: 5.79% | 
Cc1c(COc2ccc3ccccc3c2)nnn1CC(=O)NS(=O)(=O)c1ccccc1C(F)(F)F | inactive: 12.8% | 
Cc1ccc(C)c(NC(=O)CCCCCCCCCCC2COCCO2)c1 (configuration not stated) | inactive: 0.864% | 
CCCCC(OC(=O)c1ccco1)C(=O)NCc1ccc(C)cc1 (configuration not stated) | inactive: 13.1% | 
COc1cccc(OCC(O)CN2CCN(CCN3C(=O)c4cccc5cccc(c45)C3=O)CC2)c1 (configuration not stated) | inactive: -5.07% | 
O=[N+]([O-])c1c(Nc2cccc(O)c2)cc(Cl)c2nonc12 | inactive: -26.3% | 
OCCN1CCN(c2ncnc3c2ncn3[C@H]2CN(Cc3ccncc3)C[C@@H](CO)O2)CC1 | inactive: 3.09% | 
COc1ccc(C(=O)NCCNc2ccc([N+](=O)[O-])cc2)cc1 | inactive: 8.78% | 
O=C(O)c1ccc(Cl)c(S(=O)(=O)Nc2ccccc2Cc2ccccc2)c1 | inactive: -0.847% | 
Cc1ccc(C(=O)NC(=S)NCc2cccnc2)c(C)c1 | inactive: 5.93% | 
CCOC(=O)C(NC(=O)c1cccc(Cl)c1)(Nc1nnc(C)s1)C(F)(F)F (configuration not stated) | inactive: -2.45% | 
CC(=O)NS(=O)(=O)c1ccc(NS(=O)(=O)c2ccccc2[N+](=O)[O-])cc1 | inactive: 30% | 
Cc1cc(C)cc(NC(=O)C2CCN(c3nnc(-n4c(C)ccc4C)s3)CC2)c1 | inactive: 10.4% | 
Cc1ccccc1NC(=O)C1CCCN(C(=O)Nc2ccc(F)cc2)C1 (configuration not stated) | inactive: 1.2% | 
O=C(CCc1ccccc1)Nc1cccc([N+](=O)[O-])c1 | inactive: 5.61% | 
CCOC(=O)C1CCCN(C(=O)CCNC(=O)Cn2ccc3ccccc3c2=O)C1 (configuration not stated) | inactive: 17.8% | 
O=C(O)/C=C/C(=O)N1CCc2ccccc21 | inactive: 19% | 
CN(C)CCNC(=O)c1ccc2c(=O)n(Cc3ccc(Cl)cc3)c(=S)[nH]c2c1 | inactive: -7.84% | 
